Data on 42 sequences can be found in article PMC7819943, “Rice protein-binding microarrays: a tool to detect cis-acting elements near promoter regions in rice”.

This is one part of the list.

This assay has as its target T1, OsWOX13 (Oryza sativa, UniProt Q5QMM3 1-267).
T1 sequence: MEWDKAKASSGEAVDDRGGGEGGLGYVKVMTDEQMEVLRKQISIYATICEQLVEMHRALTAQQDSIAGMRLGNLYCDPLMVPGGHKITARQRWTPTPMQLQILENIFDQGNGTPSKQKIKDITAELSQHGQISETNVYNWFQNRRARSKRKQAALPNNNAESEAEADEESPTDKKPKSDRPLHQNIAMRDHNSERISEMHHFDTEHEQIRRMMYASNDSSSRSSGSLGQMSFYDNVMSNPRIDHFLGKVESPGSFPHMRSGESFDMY
The assay is described as follows: protein-binding microarray (RPBM); PBS, 2% BSA, 51.3 ng/ul salmon testes DNA, 50 uM zinc acetate, 200 nM TF, 25 C, 1 h; high values mean tight binding. Conditions: protein: recombinant; tags: N-terminal polyhistidine and DsRed monomer fusion (pET32a); label: CyDye5-dUTP incorporated in the synthesized complementary strand; 3' TTTTT single-stranded linker to array surface; dsDNA, one strand shown. The method, boiled down: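 For the binding signal, per-feature fluorescence intensity was read in arbitrary units on an Axon 4000B scanner. Before scanning, a 2% BSA-blocked custom Agilent array made double-stranded with Cy5-dUTP was washed after 1 h at 25 °C with 200 nM protein and 50 µM zinc acetate. The proteins were Ni–NTA-purified transcription factors with N-terminal polyhistidine and DsRed fusions, expressed in E. coli BL21-CodonPlus.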
In the case of “TTCCAATTAGTTCCTTACCATCGTATCATTTCCATCCCTACGGAGTCACCTAGTGCAG”, the binding signal was 8410 fluorescence intensity (a.u.).

As to “CATTGTAATTTGCAAAGCAGCAGCACCCATGCATCATATCCGGAGTCACCTAGTGCAG”, the binding signal is 4120 fluorescence intensity (a.u.).

With “TCGGATTAATTAGGCTCAAAAGATTGTCTCGCAGTTTTCACGGAGTCACCTAGTGCAG”, the binding signal was 18900 fluorescence intensity (a.u.).

For the sequence “ATATATATTGATTATATGTTTATTTTGTATGAAGATGTTCCGGAGTCACCTAGTGCAG”, the binding signal is 34900 fluorescence intensity (a.u.).

In the case of “ACTGATTATATTTGTGTAATTTAGTGATTAGCCATATCAGCGGAGTCACCTAGTGCAG”, the binding signal is 47400 fluorescence intensity (a.u.).

For the sequence “CGCAAAATTTTAACTTTTCTGTCACATCGTTCTAATTTCACGGAGTCACCTAGTGCAG”, the binding signal is 6030 fluorescence intensity (a.u.).

In the case of “GCATTCTTATTGACAAATTGTTTACTTCTATCTGCCTTTTCGGAGTCACCTAGTGCAG”, the binding signal was 8810 fluorescence intensity (a.u.).

With “ATATTAGATATGTTTAATTCCGTGATGCGTAATAATGCGTCGGAGTCACCTAGTGCAG”, the binding signal was 3430 fluorescence intensity (a.u.).

“AGGTCATCAATCAGAATGGAGATGGGAGATGGGGACTGTTCGGAGTCACCTAGTGCAG”: the binding signal was 23000 fluorescence intensity (a.u.).

As to “GATTTAATGGATCACCTGCTATTACAGATTCCTTCAGTTGCGGAGTCACCTAGTGCAG”, the binding signal is 4210 fluorescence intensity (a.u.).

Consider “ACTCAATTAGCGTAAAACTAATAAGTATTAACTATTACAACGGAGTCACCTAGTGCAG”, for which the binding signal was 9820 fluorescence intensity (a.u.).

As for “AATTAAATTTAAGTTGCTGCGGGTGTCTAAATTTATATCGCGGAGTCACCTAGTGCAG”, the binding signal is 9560 fluorescence intensity (a.u.).

For the sequence “GAATCTGATTGGAATGAAGAGAGTAAAATATTCTGCAGTCCGGAGTCACCTAGTGCAG”, the binding signal is 40000 fluorescence intensity (a.u.).

Consider “AAGTGATGATTGCTTACTTGCAGGAGCAGGCGCTGTGTCTCGGAGTCACCTAGTGCAG”, for which the binding signal was 33800 fluorescence intensity (a.u.).

Regarding “TCCTGATCAAAGTTTGAAATTATTAGCACAGAGAATTTTGCGGAGTCACCTAGTGCAG”, the binding signal is 5010 fluorescence intensity (a.u.).

Consider “TTATGTTTCTTAATTATTTAATTGGAAGTAAATTGAATTGCGGAGTCACCTAGTGCAG”, for which the binding signal is 22200 fluorescence intensity (a.u.).

For the sequence “AGCCTTACATAATTTGATGCTTAACAATGATATCTTATTTCGGAGTCACCTAGTGCAG”, the binding signal was 6290 fluorescence intensity (a.u.).

As for “AATATACCATGATTTGACAATGTGATGATACAGTAAACATCGGAGTCACCTAGTGCAG”, the binding signal is 10200 fluorescence intensity (a.u.).

Consider “CTCAATCCTCATCACTGTCTAATTAACCTCATTATCATTTCGGAGTCACCTAGTGCAG”, for which the binding signal was 8840 fluorescence intensity (a.u.).

In the case of “TACCGATAATTTATAAGTTATTGTTAGTCAAAGTTAATGGCGGAGTCACCTAGTGCAG”, the binding signal was 27700 fluorescence intensity (a.u.).

Take “GAAAATTGCATTTAGATCCAAGCGAGACTGATTCGAAAATCGGAGTCACCTAGTGCAG”: the binding signal was 3970 fluorescence intensity (a.u.).

In the case of “GACCGCGTCACTGATTGGCCTGCCTCTCCTCGCACCGGGGCGGAGTCACCTAGTGCAG”, the binding signal was 12700 fluorescence intensity (a.u.).

In the case of “TGCTCAAATAAATTAAAGTGATAGGAAATAGAAGTATTGGCGGAGTCACCTAGTGCAG”, the binding signal is 7140 fluorescence intensity (a.u.).

For the sequence “TTGATTATCAGAGTAACAAATGCTGAATATTGACCGCCAACGGAGTCACCTAGTGCAG”, the binding signal was 11400 fluorescence intensity (a.u.).

In the case of “ACCCGAAAACCAATTATGATCACTAATCCATTTGTATTAACGGAGTCACCTAGTGCAG”, the binding signal is 5580 fluorescence intensity (a.u.).

Turning to “CTGGAGTTCAATCAAATGCTTGATGAGTTGGGCCCTCGTTCGGAGTCACCTAGTGCAG”, the binding signal was 21800 fluorescence intensity (a.u.).

For the sequence “CAAACCAAACGACCAATTAAGCTATCTATTCATCTAGCTGCGGAGTCACCTAGTGCAG”, the binding signal is 3420 fluorescence intensity (a.u.).

For “TTGATTGCCTATTCCTTTGCATTGAGAACGGCAGATAATGCGGAGTCACCTAGTGCAG”, the binding signal was 40800 fluorescence intensity (a.u.).

Turning to “ATTGTTTAACTCATTAATTTCTCCAGAGGCAACAGGACTACGGAGTCACCTAGTGCAG”, the binding signal was 4280 fluorescence intensity (a.u.).

Consider “GCATTACAAATCATTATTGGCTCCATATGGATGACAGGGACGGAGTCACCTAGTGCAG”, for which the binding signal was 6660 fluorescence intensity (a.u.).

With “CTTCTGTGATGGGAATGGACAGACACCCTGCTGCAGCTCTCGGAGTCACCTAGTGCAG”, the binding signal was 10600 fluorescence intensity (a.u.).

As for “CCAAACAATTTCAGTTTCATCTAAATTGGAGTGGAGCTGGCGGAGTCACCTAGTGCAG”, the binding signal was 11400 fluorescence intensity (a.u.).

With “CAGCCCTACTATAGTAATTGGATTGGCTACCCATGGATCACGGAGTCACCTAGTGCAG”, the binding signal is 6410 fluorescence intensity (a.u.).

Consider “ATTTTCCCTGATCATTAATTATTGCATCGTTACTAATTAACGGAGTCACCTAGTGCAG”, for which the binding signal is 5500 fluorescence intensity (a.u.).

In the case of “CCTGGTGAATTAATTGGGTAATTAATGAGCACACTGACGCCGGAGTCACCTAGTGCAG”, the binding signal was 49500 fluorescence intensity (a.u.).

Take “TCAAAATGTCTAATAATTTGGGACGGAGACACTAGTATTCCGGAGTCACCTAGTGCAG”: the binding signal is 4940 fluorescence intensity (a.u.).

For “CGTGTTGATTGTGTCCTTGGCACCTTGCAATTCCATCCCCCGGAGTCACCTAGTGCAG”, the binding signal is 26500 fluorescence intensity (a.u.).

In the case of “GTATGTGATTTTCTTTAATTAGAGTTCTTGCCTAAGGTTGCGGAGTCACCTAGTGCAG”, the binding signal was 38300 fluorescence intensity (a.u.).

Consider “CCCACCCGCCAGTCTAATTGGGTAGACCCAGTCCAAAATACGGAGTCACCTAGTGCAG”, for which the binding signal was 3220 fluorescence intensity (a.u.).

As for “ATAAATTTGATCGTAAATGTTGCGATTTGCTAAGACCGTACGGAGTCACCTAGTGCAG”, the binding signal is 23000 fluorescence intensity (a.u.).

For “TCAAGTTTTGTGATTAAATTGTAACTAAACCTGTAGTTTTCGGAGTCACCTAGTGCAG”, the binding signal is 5660 fluorescence intensity (a.u.).

On to “AATTGATTAATTTTCTTAATCGAACCCATCAAGAAATCCACGGAGTCACCTAGTGCAG”, for which the binding signal was 33000 fluorescence intensity (a.u.).
